# From PubChem BioAssay AID588342 (National Center for Advancing Translational Sciences (NCATS), 2011)
# The whole screen tested about 360,000 compounds, of which about 25,000 (6.9%) were called active. This list was built around the results that the source calls inconclusive (neither active nor inactive); the mix of calls is not that of the screen. Calls follow the shape of the dose curve; as a rule, active = well fitted inhibition curve with a large enough effect; inconclusive = small, poorly fitted or top-dose-only effect; inactive = flat fitted curve, though single readings scatter. Potencies of inconclusive entries are doubtful fits and often do not repeat.
# Target: Luciferin 4-monooxygenase (Photinus pyralis) (UniProt P08659)
# Experiment: qHTS profiling assay for firefly luciferase inhibitor/activator using purifed enzyme and Km concentrations of substrates (counterscreen for miR-21 project); also: nearly all actives have a fitted effect of over 55% in size;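 as to activity change, negative = inhibition: plate controls were vehicle for no effect and reference inhibitor for full effect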
# Settings: purified FLuc, luminescence inhibition; activity change, negative = inhibition: at 57.5 µM (top of the series)
# Procedure, shortened: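 Purified P. pyralis luciferase (10nM final) with 10uM D-luciferin and 10uM ATP (Km levels) in 50mM Tris acetate pH 7.5, 10mM Mg acetate, 0.01% Tween-20, 0.05% BSA; qHTS 6-point titration, ~60 µM downward; luminescence read.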
# Potency is read from the fitted curve at half-maximal effect; tags tell the direction and shape of the fitted curve.
# UniProt P08659, sequence (P08659 whole entry, looked up): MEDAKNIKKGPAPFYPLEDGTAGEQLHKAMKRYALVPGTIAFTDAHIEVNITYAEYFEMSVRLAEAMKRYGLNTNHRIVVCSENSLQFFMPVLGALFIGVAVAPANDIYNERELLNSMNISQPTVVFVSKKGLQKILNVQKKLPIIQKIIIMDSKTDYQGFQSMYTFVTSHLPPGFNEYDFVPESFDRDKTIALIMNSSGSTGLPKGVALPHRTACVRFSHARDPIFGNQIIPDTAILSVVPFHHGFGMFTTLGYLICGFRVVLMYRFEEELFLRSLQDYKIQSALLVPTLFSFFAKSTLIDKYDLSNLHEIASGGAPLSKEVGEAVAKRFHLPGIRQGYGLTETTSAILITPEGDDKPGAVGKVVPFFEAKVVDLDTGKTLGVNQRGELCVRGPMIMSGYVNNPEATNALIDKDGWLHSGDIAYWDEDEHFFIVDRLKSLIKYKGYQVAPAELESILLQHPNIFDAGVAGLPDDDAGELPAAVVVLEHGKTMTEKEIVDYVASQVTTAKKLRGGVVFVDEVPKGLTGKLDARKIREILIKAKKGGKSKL
Structure (SMILES),Potency,"activity change, negative = inhibition"
COc1cccc(-c2nc(CCl)cs2)c1,active: 26.9 µM,
CCCOc1ccc(C(=O)CCC(=O)NNC(=O)c2cccs2)cc1,"inconclusive: 16.9 µM [inhibitor, partial curve, poor fit]",
Cc1ccc(/C=C/C(=O)N2CCN(S(=O)(=O)/C=C/c3ccccc3)CC2)o1,,inactive: -7%
CNC(=O)c1c(N)sc2c1CCCCC2,"inconclusive: 21.3 µM [inhibitor, partial curve, poor fit]",
Cc1cc(C(F)(F)F)c2c(N)c(C(=O)Nc3cc(C)on3)sc2n1,"inconclusive: 5.36 µM [inhibitor, partial curve, poor fit]",
COc1ccc(/C=C/C(=O)NC(=S)NNC(=O)c2cccs2)cc1,"inconclusive: 9.53 µM [inhibitor, partial curve]",
CCC(Sc1nnc2c(n1)[nH]c1ccccc12)C(=O)Nc1nnc(C(C)C)s1 (stereo unspecified),"inconclusive: 1.69 µM [inhibitor, full curve]",
COc1cc(C(=O)Nc2ccccc2NC(=O)c2cc(OC)c(OC)c(OC)c2)cc(OC)c1OC,,inactive: -0.21%
CC(C)(C)OC(=O)N1CC(O)CC1C(=O)OCC(=O)c1ccc(-c2ccccc2)cc1 (stereo unspecified),,inactive: -3.44%
CCCn1nnc(NC(=O)c2ccc3c(c2)OCO3)n1,active: 19 µM,
COc1ccccc1NC(=O)c1ccc(CSc2ccccc2)o1,"inconclusive: 26.9 µM [inhibitor, single point]",
Cc1ccccc1-c1noc(-c2ccc(N3CCCCC3)c([N+](=O)[O-])c2)n1,"inconclusive: 13.5 µM [inhibitor, partial curve]",
CCn1c(C(=O)O)c(CC(=O)Nc2ccccc2F)c2ccccc21,"inconclusive: 9.53 µM [inhibitor, partial curve]",
COc1cc(NC(=O)CSc2nnc(C)n3c2cc2oc(C)cc23)cc(OC)c1,,inactive: -3.17%
COc1ccc(-n2nc(C(=O)NCC(=O)N3CCN(c4ccccc4)CC3)c3ccccc3c2=O)c(OC)c1,active: 0.536 µM,
O=C(CCNC(=O)c1ccccc1Cl)Nc1nc2ccc(F)cc2s1,"inconclusive: 21.3 µM [inhibitor, partial curve]",
C=CCNC(=O)c1onc(CSc2cc(C)cc(C)c2)c1C(=O)O,,inactive: -9.55%
CCc1c(C)nc(SCC(=O)CC(=O)OC(C)C)c(C#N)c1C,"inconclusive: 37.9 µM [inhibitor, partial curve, poor fit]",
Cc1cc(C)cc(OCC(=O)Nc2nc3c(s2)CC(C(C)(C)C)CC3)c1 (stereo unspecified),active: 12 µM,
COc1ccc(OC)c2sc(NC(=O)c3ccc(S(=O)(=O)N4CCCC4)cc3)nc12,,inactive: -0.981%
Cc1cccc(-n2ncc(C(=O)N3CCN(C4CCCCC4)CC3)c2C2CCN(C(=O)OC(C)(C)C)CC2)c1,,inactive: -1.29%
Cc1ccc(C)c(NC(=S)c2nc3ccccc3s2)c1,"inconclusive: 4.26 µM [inhibitor, partial curve, poor fit]",
CCc1ccc(C(=O)N/N=C/c2ccc(Cl)cc2Cl)nc1,active: 7.57 µM,
COc1cccc(NC(=O)c2ocnc2C)c1,"inconclusive: 21.3 µM [inhibitor, partial curve, poor fit]",

Structure (SMILES),Potency,"activity change, negative = inhibition"
COc1ccc(NC(=O)c2cccc(NC(=O)c3ccco3)c2)c(OC)c1,"inconclusive: 21.3 µM [inhibitor, partial curve]",
O=[N+]([O-])c1ccc(/C=N/N2CCCCC2)cc1,active: 9.53 µM,
COc1cc(OC)cc(OC(=O)C2CCN(C(=O)c3ccc(F)cc3)CC2)c1,,inactive: 1.3%
Cc1ccc(NC(=O)c2ccc3nccnc3c2)c(C)c1,"inconclusive: 23.9 µM [inhibitor, single point]",
CC(/C=N/Nc1ncc(C)c(=O)[nH]1)=C\c1ccccc1,"inconclusive: 26.9 µM [inhibitor, single point]",
Nc1nc(-c2c[nH]c3ccccc23)cs1,"inconclusive: 26.9 µM [inhibitor, single point]",
COc1cc(NS(=O)(=O)c2ccc(NC(=S)NC(=O)/C=C/c3ccco3)cc2)ncn1,"inconclusive: 37.9 µM [inhibitor, partial curve, poor fit]",
COc1ccc(CNc2nc(SCc3ccc(Cl)cc3)nc3ccccc23)cc1,,inactive: -2.64%
Cc1ccc2[nH]c3c(=O)n(N)c(C)nc3c2c1,"inconclusive: 37.9 µM [inhibitor, single point]",
FCCCOc1ccc(-c2ccnc(-c3ccccc3)n2)cc1,active: 12 µM,
CN(CC(=O)Nc1ccc(Br)cc1)Cc1ccccc1,"inconclusive: 37.9 µM [inhibitor, partial curve, poor fit]",
CCN(c1cccc(C)c1)S(=O)(=O)c1ccc(N2CCCCS2(=O)=O)cc1,,inactive: -12.1%
Nc1nonc1-c1noc(-c2ccccc2Br)n1,active: 16.9 µM,
O=C(Nc1ccc(Cl)cc1)Nc1cc([N+](=O)[O-])ccc1F,"inconclusive: 21.3 µM [inhibitor, single point]",
CCCCCN1C(C(=O)c2ccccc2)=C(NC(=O)c2ccc(OC)cc2)c2ccccc2S1(=O)=O,,inactive: 0.909%
Cc1nc2cc(-c3ccc(Cl)cc3)nn2c(C)c1CCC(=O)NC(C)c1ccc2c(c1)OCCO2 (stereo unspecified),active: 15.1 µM,
COc1cc(SC)ccc1C(=O)NC1CCCCC1,"inconclusive: 26.9 µM [inhibitor, partial curve]",
O=C(Nc1ccc(C(F)(F)F)cc1)c1ccccc1,"inconclusive: 5.01 µM [inhibitor, full curve, poor fit]",
CCOC(=O)Cc1csc(NC(=O)c2cccc(OC)c2)n1,"inconclusive: 26.9 µM [inhibitor, single point]",
CSc1ccccc1OCc1cc(C(=O)NCc2ccc(C)s2)no1,"inconclusive: 21.3 µM [inhibitor, single point]",
COc1cccc(C(=O)COC(=O)c2n[nH]c(=O)c3ccccc23)c1,"inconclusive: 30.1 µM [inhibitor, single point]",
COc1ccc(C(=O)NC(=S)NNC(=O)COc2ccccc2)cc1,"inconclusive: 26.9 µM [inhibitor, partial curve, poor fit]",
O=C(Nc1ccccc1)O/N=C/c1ccncc1,"inconclusive: 21.3 µM [inhibitor, single point]",
O=C(/C=C/c1ccccc1)N1CCC(c2ccccc2)C1 (stereo unspecified),active: 4.78 µM,

Structure (SMILES),Potency,"activity change, negative = inhibition"
COc1ccc(N2CCN(C(=O)CCCn3c(=S)[nH]c4cc5c(cc4c3=O)OCO5)CC2)cc1,,inactive: -1.38%
CCOC(=O)c1sc(NC(=O)CSc2nc(O)c(Cc3ccccc3)c(=O)[nH]2)nc1C,"inconclusive: 10.7 µM [inhibitor, partial curve, poor fit]",
COc1ccc2occ(CC(=O)Nc3ccc(S(=O)(=O)Nc4nccc(C)n4)cc3)c2c1,"inconclusive: 19 µM [inhibitor, partial curve, poor fit]",
Cc1ccc(O)c(NC(=O)Cc2ccc3ccccc3c2)c1,"inconclusive: 23.9 µM [inhibitor, partial curve, poor fit]",
O=C(CCc1ccccc1)NNC(=O)c1ccccc1F,,inactive: 0.392%
CC1CN(c2ccc(Cl)cc2)c2nc3c(c(=O)n(CC(=O)O)c(=O)n3C)n2C1 (stereo unspecified),,inactive: 3.04%
CC(c1ccccc1)N1CCn2c(nc3cc(NC(=O)NC4CCCCC4)ccc32)C1 (stereo unspecified),"inconclusive: 12 µM [inhibitor, partial curve]",
FC(F)(F)c1ccc(NC(=S)NC2CCCCC2)cc1,"inconclusive: 19 µM [inhibitor, partial curve]",
Cc1nn(C)cc1/C=C1\SC(=S)NC1=O,"inconclusive: 33.8 µM [inhibitor, partial curve, poor fit]",
COc1ccc(CNC(=O)CNC(=O)c2ccc(C(C)(C)C)cc2)cc1OC,"inconclusive: 30.1 µM [inhibitor, partial curve, poor fit]",
Cc1cc(/C=C2\SC(=S)NC2=O)c(C)n1C,active: 26.9 µM,
CC(=O)NS(=O)(=O)c1ccc(NC(=O)c2cccc(S(=O)(=O)N3CCc4ccccc43)c2)cc1,"inconclusive: 37.9 µM [inhibitor, partial curve, poor fit]",
CN1CCN(C2(CNC(=O)c3ccc(C(C)(C)C)cc3)CCCCC2)CC1,,inactive: -0.411%
COc1ccc(/C=N/NC(=O)c2ccn[nH]2)cc1Cn1cc([N+](=O)[O-])cn1,"inconclusive: 23.9 µM [inhibitor, partial curve, poor fit]",
O=c1c2c3c(sc2nc(NCCOCCO)n1Cc1ccco1)CCCCC3,active: 16.9 µM,
Cc1cccc(C)c1NC(=O)COC(=O)c1c(C)nn(-c2ccccc2)c1C,,inactive: -19%
Nc1ccc(C(=O)N/N=C/c2cn(Cc3ccccc3)c3ccccc23)cc1,active: 16.9 µM,
CCC1(C)CC(=O)c2c(ccc3oc(C(=O)NCc4ccccc4)c(C)c23)O1 (stereo unspecified),active: 9.53 µM,
Clc1ccc(-c2nc3cnccn3c2Nc2ccc3c(c2)OCO3)cc1,"inconclusive: 23.9 µM [inhibitor, partial curve, poor fit]",
c1ccc2[nH]c(SCCN3CCOCC3)nc2c1,"inconclusive: 21.3 µM [inhibitor, single point]",
CCOc1ccc(C(=O)/C=C/c2cn(CC(O)CN3CCCCCC3)c3ccccc23)cc1 (stereo unspecified),"inconclusive: 16.9 µM [inhibitor, partial curve]",
CC(C)(C)c1ccc(NS(=O)(=O)c2ccc(N)cc2)cc1,"inconclusive: 37.9 µM [inhibitor, partial curve, poor fit]",
Cc1ccc(OCC(=O)NC(=S)Nc2ccc(S(=O)(=O)Nc3cc(C)on3)cc2)c(Br)c1,active: 1.51 µM,
